Assay results: PubChem BioAssay AID1963576 (National Center for Advancing Translational Sciences (NCATS), 2024)
About 60 (0.1%) of roughly 46,000 compounds were called active. About 3% were inconclusive and are not listed. Calls come from the whole dose curve; as a rule, active = well fitted inhibition curve with a large enough effect; inconclusive = small, poorly fitted or top-dose-only effect; inactive = no such curve, though single readings can be large or run the other way. The list shows a part of the results.

experiment: Primary qHTS assay for Inhibitors of ovarian cancer metastasis using an organotypic tumor microenvironment (TME) model.; note: nearly all actives have a fitted effect of over 65% in size;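 for activity change, negative = inhibition: plate controls were DMSO wells for no effect and tomatine positive control wells for full effect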; conditions: SKOV3ip1-GFP adhesion/invasion on 3D omental model, fluorescence; series mostly up to 45.8 µM; activity change, negative = inhibition: at the top concentration
Method in brief: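 Adhesion/invasion was scored as fixed GFP-labeled SKOV3ip1 cell counts (488/509 nm), normalized to DMSO and tomatine controls. Cancer cells in serum-free medium, with four compound doses (0.36-46 umol/L), sat 2 hr at RT then 16 hr at 37 C on a 48 hr fibroblast/mesothelial/ECM culture.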

Activity change, negative = inhibition, inactive:
CCOc1cc2[nH]c(=O)n(Cc3ccc(C(=O)N4CCN(c5cccc(Cl)c5)CC4)cc3)c(=O)c2cc1OCC -3.69%
COc1cc(C2NC(=O)c3c(sc4c3CCN(C)C4)N2)cc(OC)c1OC (centres undefined) 7.13%
CC(=O)CSc1nnc2[nH]c(=O)cc(N)n12 8.33%
Cc1cccc(-c2nnc(C3CCN(S(=O)(=O)c4cccc(Cl)c4)CC3)o2)c1 -3.19%
CCOC(=O)c1c(C)c(-c2ccccc2)n(CC(=O)NC2CCCCC2)c1C -6.98%
COc1ccc(Br)cc1CN1C(=O)c2ccccc2C1C(=O)NC1CCCCCC1 (centres undefined) -27%
O=C(Cn1c(=O)nc(-c2ccccc2)c2cc(Cl)ccc21)N1CCN(c2ccc(F)cc2)CC1 -1.47%
COCCNC(=O)c1cnc2sc(N3CCC(C)CC3)nn2c1=O -2.98%
CCN(C(=O)c1cnc2ccc(C)cn2c1=O)c1ccccc1 2.06%
COC(=O)C1=C(C)NC(C)=C(C(=O)OC(C)C)C1c1cccc2nonc12 (centres undefined) 21%
Cc1cccc(CNC(=O)CS(=O)(=O)c2cccc3nsnc23)c1 1.55%
COc1ccc(Cl)cc1NC(=O)c1nn(-c2ccc(C)cc2)c(=O)n(C)c1=O 6.02%
O=C(Nc1ccc2c(c1)CCCN2C(=O)c1cccs1)c1ccccc1Cl -6.6%
N#C[C@H]1C[C@H]2C[C@@H]2N1C(=O)[C@@H](N)C12CC3CC(CC(O)(C3)C1)C2 0.669%
CCc1ccc(NC(=O)C2CCN(c3nn4c(=O)cc(C)nc4s3)CC2)cc1 13.9%
CN1N=C(N)c2cn([C@@H]3O[C@H](COP(=O)(O)O)[C@@H](O)[C@@H]3O)c3ncnc1c23 2.26%
Cc1cc(C)cc(NS(=O)(=O)c2cc3c(cc2C)NC(=O)CO3)c1 -8.52%
CCCCn1cc2c(c1-c1ccc(Cl)cc1)c(=O)n(C)c(=O)n2C 7.14%
O=C(Nc1ccc(OC(F)(F)F)cc1)c1cc2ccccn2n1 7.54%
COc1cc(OC)c(Nc2nc3ccc(C(=O)c4ccccc4)cc3n3c(C)nnc23)cc1Cl 4.78%
Cc1cc(C)n(-c2nc3ccccc3nc2Nc2cccc(C)c2C)n1 -2.02%
CCC(Sc1nc2ccccc2c(=O)n1CCc1ccc(OC)c(OC)c1)C(=O)N(CC)CC (centres undefined) 3.73%
Cn1c(Nc2ccc(C(F)(F)F)cc2)nc2cc(Oc3ccnc(-c4ncc(C(F)(F)F)[nH]4)c3)ccc21 29%
COc1ccc(Cl)cc1NC(=O)c1sc2nc3n(c(=O)c2c1C)CCC3 -2.12%
COc1ccc(NC(=O)CSc2nnc(-c3nonc3NC(C)=O)n2-c2ccccc2)cc1 -2.05%
CCOC(=O)c1c(NC(=O)c2ccc(S(=O)(=O)N(CC(C)C)CC(C)C)cc2)sc2c1CCN(C(=O)OCC)C2 -0.119%
CCC(=O)N(CCC(c1ccccc1)c1ccc2c(c1)OCO2)Cc1ccc(OC(C)C)cc1 (centres undefined) -9.2%
CCc1ccc(CN(Cc2cn[nH]c2-c2ccc(OC)cc2)C(=O)Nc2cc(Cl)ccc2OC)cc1 1.7%
CCN(CC)C(=O)Cn1c(=O)n(Cc2ccc(C(=O)NCCc3ccc(OC)c(OC)c3)cc2)c(=O)c2ccccc21 5.82%
CCCCN(CCCNC(=O)c1cc(Nc2ccc(OC)c(OC)c2)nc2ccccc12)Cc1ccccc1 -0.471%
CCOC(=O)C1=C(C)N=C2SCCC(=O)N2C1c1ccc(OCc2ccccc2)cc1 (centres undefined) 5.64%
Cc1ccc(-n2ncc3c(NC4CCCCCC4)ncnc32)cc1Cl 1.88%
Cc1ccc(-n2ncc(C(=O)NCc3ccco3)c2C2CCN(C(=O)OC(C)(C)C)CC2)c(C)c1 -5.04%
Cc1cccc(-c2nc3c4ccccc4nc(N4CCN(c5cc(C)ccc5C)CC4)n3n2)c1 1.03%
Cc1cccc(N2CCN(C(=O)CCn3c(=O)c4cccn4c4cccnc43)CC2C)c1 (centres undefined) 3.8%
O=C(Nc1cccc(Cl)c1)c1cc2c(=O)[nH]c3ccccc3c2s1 2.87%
Cc1nnc(N2CCCC(C(=O)NCCc3ccc(Cl)cc3)C2)c2nn(-c3ccccc3)c(C)c12 (centres undefined) -20.3%
O=C(Nc1ccc(-c2cn3cccnc3n2)cc1)c1cc(Br)ccc1Cl -21.8%
CCc1ccccc1NC(=O)c1cnc2sc(N3CCCC3)nn2c1=O -4.54%
COc1ccc(CN2C(=O)c3ccccc3C2C(=O)NCCc2ccccc2)c(OC)c1 (centres undefined) 4.85%
CC(C)CCNC(=O)CN1N=C(c2ccc(Cl)cc2)CCC1=O -10.3%
COc1cccc(N2CCN(C(=O)Cn3c(-c4cccs4)cc4ccccc43)CC2)c1 -0.581%
Cc1ccc(-c2nc(C)c(CCNS(=O)(=O)c3ccc(F)c(C(F)(F)F)c3)s2)cc1 -8.59%
O=C(Nc1cccc(C(F)(F)F)c1)c1cc2ccc3cccnc3c2[nH]1 1.02%
COc1ccc(CNc2oc(-c3ccc(COc4ccccc4C)o3)nc2C#N)cc1 -21.7%

outcome, inactive:
CCOC(=O)C1CCN(C(c2cccc(F)c2)c2c(O)cc(C)n(CCOC)c2=O)CC1 (centres undefined)
COc1cc(NC(=O)Cn2cnc(S(=O)(=O)N3CCCC3)c2)cc(OC)c1OC
CCOC(=O)c1c(C)[nH]c(C)c1S(=O)(=O)N1CCCC(C(=O)N2CCN(c3cccc(C)c3C)CC2)C1 (centres undefined)
Clc1ccc(-c2noc3ncnc(NCCc4ccccc4)c23)cc1
O=c1nc2n(-c3ccccc3F)c3ccccc3cc-2c(=O)[nH]1
CCOc1ccc(CCNS(=O)(=O)c2cc(Br)cc3c2N(C(C)=O)CC3)cc1OCC
CCCN(C(=O)Cn1cnc2onc(-c3ccc(F)cc3)c2c1=O)c1cccc(Cl)c1
COC(=O)c1c(NC(=O)CCCOc2cccc(C)c2)sc2c1C(C(=O)OC)CC2 (centres undefined)
COc1ccc(S(=O)(=O)NCCc2csc(-c3ccc(F)cc3)n2)cc1F
CC(=O)c1ccc(N2C(=O)N(CC(=O)c3ccc(F)cc3)c3ccccc3S2(=O)=O)cc1
COc1cccc(C(=O)Nc2cccc(-c3cn4c(C)csc4n3)c2)c1OC
CCOc1ccc(-c2nn(CC(=O)NC3CCCC3)c3c2cnc2ccc(F)cc23)cc1
CC1=C(C(=O)Nc2ccc(C)cc2C)C(c2cccs2)n2nc(SCc3ccccc3Cl)nc2N1 (centres undefined)
CCn1cc(C(=O)N2CCN(c3ccccc3F)CC2)c(=O)c2cc(S(=O)(=O)N(C)C)ccc21
